# According to the supplement of paper PMC8728848:
# Some of the results follow.
# B1: GS7807P-bth-537-23-537 (Bacteroides thetaiotaomicron) (protein)
# chain: NYENINSNPYEAPDLSADGYALGSAMNNLAGCVVSPDVNTAQFTDCLLGGPLGGYFADSNAGFTETISNFNPKDDWSRVFLKSDKIIPTLYSNLTQVKLVSQNTNDPVPYAIAQVIKVAAMHRVTDAFGPIPYSQIGANGEIATPYDSQEVTYNTFFDELNAAIATLNENSNEQLVPTADYIYKGDVKKWIRFANSLKLRLAIRIAYANPVKAQQMAEEAVNPANGGVIESNADNATWNYFETSQNPIYVATRYNQVQTSDHGGVPCLTGGDTHAAADIICYMNGYKDNRREKFFTKSEWAGQDYVGMRRGIVIPELKTTGHKYSGVNIAPTSPLYWMNAAEVAFLRAEGQAVFNFSMGGTAESFYNQGIRLSFEQWGADGVEDYLKDDVNKPTAYTDPAGTNTYQNALSNITIKWNDSADKEEKQERIIVQKWIANWQLGNEAWADFRRTGYPKLIPVKENKSGGVVDSEKGARRMPYPLDEFVSNKANVEYAIANYLHGADNMATDVWWASKK
# Legend:
# Experiment in all cases: glycan array binding signal (z-score within array); higher = stronger binding
# Settings in all cases: glycan notation: IUPAC condensed, linker removed
# [1] = molecular target: Neu5Ac(a2-3)Gal(b1-3)GlcNAc(b1-2)Man(a1-3)[GlcNAc(b1-4)][Neu5Ac(a2-3)Gal(b1-3)GlcNAc(b1-2)Man(a1-6)]Man(b1-4)GlcNAc(b1-4)GlcNAc
# Procedure, shortened: (§1)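 Arrays were curated from the Consortium for Functional Glycomics database, 3228 in total, and kept only where the protein sequence was available. Binding is expressed as a within-array Z-score. This score was averaged across arrays of the same protein sequence at different concentrations or buffers and across linkers, and negative values can be read as non-binding.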
# [2] = molecular target: Neu5Ac(a2-3)Gal(b1-3)GlcNAc(b1-2)Man(a1-3)[Neu5Ac(a2-3)Gal(b1-3)GlcNAc(b1-2)Man(a1-6)]Man(b1-4)GlcNAc(b1-4)GlcNAc
# Procedure, shortened: as §1
# [3] = molecular target: Neu5Ac(a2-3)Gal(b1-3)GlcNAc(b1-3)Gal(b1-3)GlcNAc
# Procedure, shortened: as §1
# [4] = molecular target: Neu5Ac(a2-3)Gal(b1-3)GlcNAc(b1-3)Gal(b1-4)GlcNAc
# Procedure, shortened: as §1
# [5] = molecular target: Neu5Ac(a2-3)Gal(b1-3)GlcNAc(b1-3)GalNAc
# Procedure, shortened: as §1
# [6] = molecular target: Neu5Ac(a2-3)Gal(b1-3)GlcNAc(b1-4)Gal(b1-4)Glc
# Procedure, shortened: as §1
# [7] = molecular target: Neu5Ac(a2-3)Gal(b1-3)GlcNAc(b1-6)GalNAc
# Procedure, shortened: as §1
# [8] = molecular target: Neu5Ac(a2-3)Gal(b1-3)GlcNAc6S
# Procedure, shortened: as §1
# [9] = molecular target: Neu5Ac(a2-3)Gal(b1-3)[Fuc(a1-4)]GlcNAc
# Procedure, shortened: as §1
# [10] = molecular target: Neu5Ac(a2-3)Gal(b1-3)[Fuc(a1-4)]GlcNAc(b1-3)Gal(b1-3)[Fuc(a1-4)]GlcNAc
# Procedure, shortened: as §1
# [11] = molecular target: Neu5Ac(a2-3)Gal(b1-3)[Fuc(a1-4)]GlcNAc(b1-3)Gal(b1-4)[Fuc(a1-3)]GlcNAc
# Procedure, shortened: as §1
# [12] = molecular target: Neu5Ac(a2-3)Gal(b1-3)[GlcNAc(b1-6)]GalNAc
# Procedure, shortened: as §1
# [13] = molecular target: Neu5Ac(a2-3)Gal(b1-3)[Neu5Ac(a2-6)]GalNAc
# Procedure, shortened: as §1
# [14] = molecular target: Neu5Ac(a2-3)Gal(b1-3)[Neu5Ac(a2-6)]GlcNAc(b1-3)[Fuc(a1-3)[Gal(b1-4)]GlcNAc(b1-6)]Gal(b1-4)Glc
# Procedure, shortened: as §1
# [15] = molecular target: Neu5Ac(a2-3)Gal(b1-3)]Neu5Ac(a2-3)Gal(b1-4)]GlcNAc
# Procedure, shortened: as §1
# Neu5Ac(a2-3)Gal(b1-4)Glc = molecular target: Neu5Ac(a2-3)Gal(b1-4)Glc
# Procedure, shortened: as §1
# [16] = molecular target: Neu5Ac(a2-3)Gal(b1-4)GlcNAc
# Procedure, shortened: as §1
# [17] = molecular target: Neu5Ac(a2-3)Gal(b1-4)GlcNAc(b1-2)Man
# Procedure, shortened: as §1
# [18] = molecular target: Neu5Ac(a2-3)Gal(b1-4)GlcNAc(b1-2)Man(a1-3)[GlcNAc(b1-4)][Neu5Ac(a2-3)Gal(b1-4)GlcNAc(b1-2)Man(a1-6)]Man(b1-4)GlcNAc(b1-4)GlcNAc
# Procedure, shortened: as §1
# [19] = molecular target: Neu5Ac(a2-3)Gal(b1-4)GlcNAc(b1-2)Man(a1-3)[Neu5Ac(a2-3)Gal(b1-4)GlcNAc(b1-2)Man(a1-6)]Man(b1-4)GlcNAc(b1-4)GlcNAc
# Procedure, shortened: as §1
# [20] = molecular target: Neu5Ac(a2-3)Gal(b1-4)GlcNAc(b1-2)Man(a1-3)[Neu5Ac(a2-3)Gal(b1-4)GlcNAc(b1-2)Man(a1-6)]Man(b1-4)GlcNAc(b1-4)[Fuc(a1-6)]GlcNAc
# Procedure, shortened: as §1
# [21] = molecular target: Neu5Ac(a2-3)Gal(b1-4)GlcNAc(b1-2)Man(a1-3)[Neu5Ac(a2-6)Gal(b1-4)GlcNAc(b1-2)Man(a1-6)]Man(b1-4)GlcNAc(b1-4)GlcNAc
# Procedure, shortened: as §1
# [22] = molecular target: Neu5Ac(a2-3)Gal(b1-4)GlcNAc(b1-2)[Neu5Ac(a2-3)Gal(b1-4)GlcNAc(b1-4)]Man(a1-3)[GlcNAc(b1-4)][Neu5Ac(a2-3)Gal(b1-4)GlcNAc(b1-2)[Neu5Ac(a2-3)Gal(b1-4)GlcNAc(b1-6)]Man(a1-6)]Man(b1-4)GlcNAc(b1-4)GlcNAc
# Procedure, shortened: as §1
# [23] = molecular target: Neu5Ac(a2-3)Gal(b1-4)GlcNAc(b1-2)[Neu5Ac(a2-3)Gal(b1-4)GlcNAc(b1-4)]Man(a1-3)[GlcNAc(b1-4)][Neu5Ac(a2-3)Gal(b1-4)GlcNAc(b1-4)Man(a1-6)]Man(b1-4)GlcNAc(b1-4)GlcNAc
# Procedure, shortened: as §1
# [24] = molecular target: Neu5Ac(a2-3)Gal(b1-4)GlcNAc(b1-2)[Neu5Ac(a2-3)Gal(b1-4)GlcNAc(b1-6)]Man(a1-6)[Neu5Ac(a2-3)Gal(b1-4)GlcNAc(b1-2)Man(a1-3)]Man(b1-4)GlcNAc(b1-4)GlcNAc
# Procedure, shortened: as §1
# [25] = molecular target: Neu5Ac(a2-3)Gal(b1-4)GlcNAc(b1-2)[Neu5Ac(a2-3)Gal(b1-4)GlcNAc(b1-6)]Man(a1-6)[Neu5Ac(a2-3)Gal(b1-4)GlcNAc(b1-2)Man(a1-3)][GlcNAc(b1-4)]Man(b1-4)GlcNAc(b1-4)GlcNAc
# Procedure, shortened: as §1
# [26] = molecular target: Neu5Ac(a2-3)Gal(b1-4)GlcNAc(b1-3)Gal
# Procedure, shortened: as §1
# [27] = molecular target: Neu5Ac(a2-3)Gal(b1-4)GlcNAc(b1-3)Gal(b1-3)GlcNAc
# Procedure, shortened: as §1
# [28] = molecular target: Neu5Ac(a2-3)Gal(b1-4)GlcNAc(b1-3)Gal(b1-4)GlcNAc
# Procedure, shortened: as §1
# [29] = molecular target: Neu5Ac(a2-3)Gal(b1-4)GlcNAc(b1-3)Gal(b1-4)GlcNAc(b1-2)Man(a1-3)[Neu5Ac(a2-3)Gal(b1-4)GlcNAc(b1-3)Gal(b1-4)GlcNAc(b1-2)Man(a1-6)]Man(b1-4)GlcNAc(b1-4)GlcNAc
# Procedure, shortened: as §1
# [30] = molecular target: Neu5Ac(a2-3)Gal(b1-4)GlcNAc(b1-3)Gal(b1-4)GlcNAc(b1-3)Gal(b1-4)GlcNAc
# Procedure, shortened: as §1
# [31] = molecular target: Neu5Ac(a2-3)Gal(b1-4)GlcNAc(b1-3)Gal(b1-4)GlcNAc(b1-3)Gal(b1-4)GlcNAc(b1-2)Man(a1-3)[Neu5Ac(a2-3)Gal(b1-4)GlcNAc(b1-3)Gal(b1-4)GlcNAc(b1-3)Gal(b1-4)GlcNAc(b1-2)Man(a1-6)]GalNAc
# Procedure, shortened: as §1
# [32] = molecular target: Neu5Ac(a2-3)Gal(b1-4)GlcNAc(b1-3)Gal(b1-4)GlcNAc(b1-3)GalNAc
# Procedure, shortened: as §1
# [33] = molecular target: Neu5Ac(a2-3)Gal(b1-4)GlcNAc(b1-3)Gal(b1-4)GlcNAc(b1-3)[Neu5Ac(a2-3)Gal(b1-4)GlcNAc(b1-3)Gal(b1-4)GlcNAc(b1-6)]GalNAc
# Procedure, shortened: as §1
# [34] = molecular target: Neu5Ac(a2-3)Gal(b1-4)GlcNAc(b1-3)Gal(b1-4)GlcNAc(b1-6)[Gal(b1-3)]GalNAc
# Procedure, shortened: as §1
# [35] = molecular target: Neu5Ac(a2-3)Gal(b1-4)GlcNAc(b1-3)Gal(b1-4)[Fuc(a1-3)]GlcNAc
# Procedure, shortened: as §1
# [36] = molecular target: Neu5Ac(a2-3)Gal(b1-4)GlcNAc(b1-3)GalNAc
# Procedure, shortened: as §1
# [37] = molecular target: Neu5Ac(a2-3)Gal(b1-4)GlcNAc(b1-3)[Neu5Ac(a2-3)Gal(b1-4)GlcNAc(b1-6)]GalNAc
# Procedure, shortened: as §1
binder,measurement,setting,value
B1,glycan array binding signal (z-score),[1],-0.273
same,glycan array binding signal (z-score),[2],-0.362
same,glycan array binding signal (z-score),[3],-0.379
same,glycan array binding signal (z-score),[4],-0.314
same,glycan array binding signal (z-score),[5],-0.366
same,glycan array binding signal (z-score),[6],-0.398
same,glycan array binding signal (z-score),[7],-0.245
same,glycan array binding signal (z-score),[8],-0.368
same,glycan array binding signal (z-score),[9],-0.367
same,glycan array binding signal (z-score),[10],-0.361
same,glycan array binding signal (z-score),[11],-0.292
same,glycan array binding signal (z-score),[12],-0.357
same,glycan array binding signal (z-score),[13],-0.387
same,glycan array binding signal (z-score),[14],-0.367
same,glycan array binding signal (z-score),[15],-0.345
same,glycan array binding signal (z-score),Neu5Ac(a2-3)Gal(b1-4)Glc,-0.323
same,glycan array binding signal (z-score),[16],-0.338
same,glycan array binding signal (z-score),[17],-0.033
same,glycan array binding signal (z-score),[18],-0.359
same,glycan array binding signal (z-score),[19],-0.144
same,glycan array binding signal (z-score),[20],-0.383
same,glycan array binding signal (z-score),[21],0.129
same,glycan array binding signal (z-score),[22],-0.339
same,glycan array binding signal (z-score),[23],-0.363
same,glycan array binding signal (z-score),[24],-0.221
same,glycan array binding signal (z-score),[25],0.16
same,glycan array binding signal (z-score),[26],-0.399
same,glycan array binding signal (z-score),[27],-0.359
same,glycan array binding signal (z-score),[28],-0.302
same,glycan array binding signal (z-score),[29],-0.026
same,glycan array binding signal (z-score),[30],-0.118
same,glycan array binding signal (z-score),[31],-0.154
same,glycan array binding signal (z-score),[32],-0.392
same,glycan array binding signal (z-score),[33],-0.373
same,glycan array binding signal (z-score),[34],1
same,glycan array binding signal (z-score),[35],-0.328
same,glycan array binding signal (z-score),[36],-0.371
same,glycan array binding signal (z-score),[37],-0.364
